# Among all 390,000 compounds or so, about 930 (0.24%) were called active. The shares of active, inactive and inconclusive entries below differ from those in the screen. Calls follow the shape of the dose curve; as a rule, active = well fitted activation curve with a large enough effect; inconclusive = small, poorly fitted or top-dose-only effect; inactive = no such curve, though single readings can be large or run the other way. Potencies beside an inconclusive call are fits to weak or partial responses and may not hold up.
# Test: qHTS for Suppressors of FUS Proteinopathy: Primary screen using FUS-linked yeast assay; also: nearly all actives have a fitted effect of over 55% in size
# Settings: S. cerevisiae FUS-expressing, OD600, 24 h; Potency: growth rescue; series mostly up to 76.6 µM
# In short: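 S. cerevisiae expressing FUS from galactose induction served as the toxicity model. Growth after 24hr at 30C, read as absorbance at 600 nm, indicates suppression of toxicity; compounds dosed at several concentrations.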
# Potency is read from the fitted curve at half-maximal effect; tags tell the direction and shape of the fitted curve.
row,Compound,Potency
1,COc1cccc(Cn2c(CNS(=O)(=O)c3ccc(Cl)s3)nc3cccnc32)c1,"inconclusive: 50.1 µM [activator, single point]"
2,CCCCNC(=O)C[C@H]1C[C@@]2(C(=O)OC)C(=C[C@H](COCc3ccccc3)O[C@@H]2C)N(Cc2cccc3ccccc23)C1=O,"inconclusive: 35.5 µM [activator, single point]"
3,O=C(Nc1ccc(F)c(Cl)c1)N1CCC(CN2CCOCC2)CC1,inactive
4,O=C(NCCc1ccccn1)C1CCN(S(=O)(=O)c2ccc(Cl)cc2)CC1,inactive
5,C#CCCOC(=O)N1C2=NC(C(=O)OC)=C(C(=O)OC)[C@@H]3N(C)c4ccccc4[C@]23C[C@H]1CO,"inconclusive: 25.1 µM [activator, single point]"
6,CCOC(=O)/C(=C/C=C1\Sc2cc(C)c(C)cc2N1CC)C(C)=O,"inconclusive: 8.91 µM [activator, partial curve]"
7,COc1ccc(NC(=O)c2cc([N+](=O)[O-])ccc2O)cc1,inactive
8,COc1ccccc1N1CCN(C(CNS(=O)(=O)c2ccccc2)c2cccnc2)CC1 (stereo unspecified),"inconclusive: 22.4 µM [activator, partial curve, poor fit]"
9,CNC(=S)N(CCc1c(C)[nH]c2ccc(C)cc12)Cc1cc(OC)c(OC)c(OC)c1,"inconclusive: 31.6 µM [activator, partial curve, poor fit]"
10,Cc1cc(C)c2c(=O)[nH]c(SCC(=O)Nc3ccc(Br)cc3)nc2n1,"inconclusive: 0.794 µM [activator, partial curve, poor fit]"
11,CCN1CCC2(CC1)N=C(c1ccc(F)cc1)C(=S)N2C(=O)c1ccc(C(C)(C)C)cc1,"inconclusive: 11.2 µM [activator, single point]"
12,Cc1cc(C(=O)CSc2nnnn2-c2ccc(O)cc2)c(C)n1Cc1ccc2c(c1)OCO2,"inconclusive: 20 µM [activator, partial curve, poor fit]"
13,COc1ccc(S(=O)(=O)N2CCC(C(=O)Nc3cc(C(F)(F)F)ccc3Cl)CC2)cc1,"inconclusive: 14.1 µM [activator, partial curve, poor fit]"
14,CN(CC(=O)Nc1ccccc1Cl)CC(=O)Nc1sc2c(c1C(N)=O)CCC2,"inconclusive: 31.6 µM [activator, single point]"
15,CCOCCCn1c(SCC(=O)Nc2cccc(S(=O)(=O)NC3=NCCCCC3)c2)nc2ccccc2c1=O,inactive
16,C=CCNc1nc2ccccc2nc1NS(=O)(=O)c1ccc(Cl)cc1,"inconclusive: 44.7 µM [activator, partial curve, poor fit]"
